Measured values as given in ChEMBL document CHEMBL4888484, “Replenishing the malaria drug discovery pipeline: Screening and hit evaluation of the MMV Hit Generation Library 1 (HGL1) against asexual blood stage Plasmodium falciparum ,using a nano luciferase reporter read-out” (2022).
About 540 (0.36%) of roughly 150,000 compounds showed an effect of 50% or more. Some of the results follow.

tested on: Plasmodium falciparum; assay: Primary screen in NF54 nanoGlo assay, in single point, at 2uM, 72h; a lower Z score goes with more inhibition; type: functional, Erythrocyte; settings: timepoint 72 hour

Compound | % Inhibition [%] | Z score
CCN(C(=O)Nc1ccc2c(c1)OCO2)[C@H]1COC[C@@H]1O | -3 | 0.52
O=C([C@H]1CCCN(C2CCN(Cc3cccnc3)CC2)C1)N1CCCCCCCC1 | -15 | 2.93
Cc1cc(F)ccc1S(=O)(=O)N1CC(N2CCCC2)C1 | 1 | -0.1
CC(C)(C)c1coc(N2C3CCC2CC(O)C3)n1 (stereo not given) | 10 | -1.3
Cc1nc(NCc2ccc(S(N)(=O)=O)cc2)c2nc(C)oc2n1 | 5 | -0.92
COc1cccc(Cc2nsc(N3CCC(Cc4ccccc4)CC3)n2)c1 | -9 | 0.94
COc1c(C)ccc(NC(=O)N2CCC(c3nccs3)CC2)c1C | 4 | -0.65
FC(F)COCCc1nc(Cc2cccnc2)no1 | 3 | -0.47
CC(C)(C)c1ccc(NC(=O)CCCc2nnc3ccccn23)cc1 | -18 | 2.25
CC(C)(C)OC(=O)N1C[C@@H]2C[C@H]1C(=O)NC[C@H]1O[C@H](CCOc3cc(-c4ccncc4)ccc3C(=O)N2)CC[C@@H]1O | 9 | -1.18
CCn1cc(S(=O)(=O)NC[C@]2(O)CCCc3ccccc32)cn1 | -10 | 1.41
CS(=O)(=O)N1CCC(Nc2ncnc3cc(Cl)ccc23)CC1 | 18 | -2.07
Cn1nc(C(F)(F)F)cc1CNC(=O)N[C@H]1CC12CCOCC2 | -10 | 1.02
CC/C=C/CC(=O)N1CCC[C@]2(CCCN(CC)C2)C1 | 1 | -0.11
CCOc1nnc(CN2CC(n3cc(C)cn3)C2)s1 | -7 | 1.01
CN(Cc1cnccn1)C(=O)c1cc(F)cc(Cl)c1O | -9 | 1.42
OCC[C@]1(CNc2cnc3cc(Cl)c(Cl)cc3n2)CCOC1 | -2 | 0.47
Cc1ccc(NC(=O)Cn2c(-n3nc(C)cc3C)nc3c(c2=O)CCC3)c(C)c1 | 14 | -1.62
CCCCCC(=O)N(O)[C@H]1CC(=O)N(c2ccc(Cl)cc2)C1=O | -14 | 1.5
O=C(Cc1ccsc1)NCCc1c[nH]c2ccccc12 | -5 | 0.73
Cc1csc(CNc2ccn(C)n2)n1 | -3 | 0.49
CC(=Cc1ccc(C)cc1)C(=O)N1CCC[C@H](c2c[nH]nn2)C1 | -15 | 1.99
COC[C@H]1[C@@H](NC(=O)c2ccc3cccc(Cl)c3n2)[C@H]2CCO[C@H]21 | -2 | 0.22
O=C1CCCN1c1ccc(-c2csc(-c3ccc(F)cc3)n2)cc1 | -11 | 1.79
COC(=O)c1cc(C)nc2c1c(=O)n(Cc1cccc(Cl)c1)c(=O)n2-c1ccccc1 | -14 | 1.75
O=C(CCc1n[nH]c2c1CCCC2)NCCNC(=O)c1ccccc1Cl | 3 | -0.4
C=CCN1CCC[C@H]1C(=O)N1CCn2cncc2C1 | -7 | 1.03
O=C(C1CCN(c2ncnc3c2nc2n3CCCCC2)CC1)N1CCN(c2ccccc2F)CC1 | -9 | 1.4

Compound | % Inhibition [%] | Z score
OCCN(CCn1cnnc1)Cc1ccc(F)cc1 | -9 | 1.75
Cc1noc(C)c1CCC(=O)N1CCC[C@H]1C1CCOCC1 | -5 | 0.51
Cc1cccc([C@H]2C(=O)NCCN2C(=O)Cc2cncnc2)c1 | -9 | 1.22
CCCn1cnnc1Cn1ccnc1-c1cccnc1 | -4 | 0.37
COc1ccc(CNC(=O)c2nnn3c2c(=O)[nH]c2cc(F)ccc23)cc1 | -1 | 0.26
CCc1ccc([C@@H]2CCCCCN2S(=O)(=O)Cc2ccon2)o1 | -5 | 0.82
COCCS(=O)(=O)N[C@@H](C)c1ccc(C#N)cc1 | -8 | 1.26
O=C(c1cccc(F)c1)N(Cc1nccn1Cc1ccc(Cl)c(Cl)c1)C1CC1 | -18 | 2.53
O=C1Nc2ccccc2C(O)=N[C@H]1CCC(=O)N1CCc2[nH]c3ccc(OC(F)(F)F)cc3c2C1 | -14 | 1.87
COc1c(C)cnc(CN2C=C(c3nc(-c4ccccc4)no3)C(C)=NS2(=O)=O)c1C | -1 | 0.07
CCc1nccn1CCc1ccc(OC)cc1 | 2 | -0.18
O=C(CN1CCN(Cc2ccccc2)CC1)NCc1ccccc1CN1CCOCC1 | -3 | 0.37
O=C(COc1ccc(Cl)cc1)N1CC[C@@H](O)C1 | -7 | 1.03
COc1cc(Cl)c(CN2CC(C(N)=O)O[C@H](C)C2)cc1Cl (stereo not given in full) | 4 | -0.36
O=C(Nc1ccccc1)OC1CCCC(NC(=O)c2cnccn2)C1 (stereo not given) | -15 | 1.77
CCc1cc2c(N3CC(c4ncc(C5CC5)cn4)C3)ncnc2s1 | 0 | -0.06
Cc1cnc(N)nc1NC1CCN(S(=O)(=O)c2ccccc2)CC1 | 1 | -0.1
COc1cc([C@H](C)N)ccc1OCC(F)(F)F | 5 | -0.69
O=C(NCc1cccnc1Oc1ccc(F)c(F)c1)c1cc[n+]([O-])cc1 | 1 | -0.05
COc1ccc2oc(CNC(=O)c3c[nH]nc3-c3cccc(F)c3)nc2c1 | -8 | 1.36
OCCN(Cc1nnc(-c2cccnc2)o1)C1CCCCC1 | -9 | 0.88
O=C(Nc1ccc(F)cn1)N1CCC[C@H](c2nc(=O)[nH][nH]2)C1 | -10 | 0.84
COc1ccc(CN2C(=O)O[C@H]3CN(Cc4cccc(O)c4)C[C@H]32)cc1OC | -6 | 0.74
C[C@H]1Cc2ccc(F)cc2CN1S(=O)(=O)CC1CCOCC1 | -3 | 0.33
COC(=O)c1nc(CCNc2cc(C#N)cnn2)sc1C | -16 | 3.14
COCC1(C)CCN(C(=O)[C@@H](C)Cc2c(C)noc2C)CC1 | -10 | 1.07
CC(C)CCn1cc([C@H](C(=O)O)N(C)Cc2ccc3c(c2)CN(C)C3)cn1 | -7 | 1.37
